# Assay results published in the supplement of paper PMC3334620.
# Whole data set: some 33,000 sequences, median “E-score (-0.5 to 0.5)” near -0.035, cut for the highest 2% near 0.34. The list shows a part of the results.
# Biological target: T1, Mot3 (UniProt P54785)
# T1 sequence: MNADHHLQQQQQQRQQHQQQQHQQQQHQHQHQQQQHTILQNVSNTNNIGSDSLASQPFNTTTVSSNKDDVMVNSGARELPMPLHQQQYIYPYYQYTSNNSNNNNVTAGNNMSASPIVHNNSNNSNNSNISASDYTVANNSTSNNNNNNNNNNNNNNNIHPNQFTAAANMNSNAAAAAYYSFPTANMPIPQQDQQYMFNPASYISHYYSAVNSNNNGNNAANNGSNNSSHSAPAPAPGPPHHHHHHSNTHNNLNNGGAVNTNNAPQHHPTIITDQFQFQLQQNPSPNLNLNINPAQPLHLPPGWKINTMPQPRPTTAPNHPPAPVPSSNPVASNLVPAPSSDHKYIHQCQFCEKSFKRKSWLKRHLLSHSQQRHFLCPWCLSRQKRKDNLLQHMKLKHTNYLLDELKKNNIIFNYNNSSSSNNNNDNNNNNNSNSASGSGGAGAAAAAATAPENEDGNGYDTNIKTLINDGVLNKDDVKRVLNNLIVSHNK
# Test: PBM E-score (8-mer binding enrichment) (E-score (-0.5 to 0.5)); higher = stronger / more preferred TF binding; most listed sequences are background and not binding sites
# Settings: protein concentration: 200 nM; construct: GST-full length
# Experimental: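 Universal 'all 10-mer' protein binding microarrays (Agilent AMADID 015681) probed with GST-tagged S. cerevisiae TFs (full-length or DBD) made by in vitro transcription/translation (PURExpress), about 100-200 nM. Bound TF was detected with fluorescent anti-GST. Each ungapped 8-mer (which stands for itself and its reverse complement) is scored by the PBM enrichment score (E-score), a modified Wilcoxon-Mann-Whitney statistic from -0.5 to +0.5, computed with the Universal PBM Analysis Suite. Scale: above 0.35 generally sequence-specific binding.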
row,Sequence,PBM E-score
1,CTTATTAA,-0.00143
2,CAGGGCAG,-0.00935
3,AGTATTCG,-0.0676
4,CTAGGTTC,-0.0266
5,GGTACACA,0.271
6,CACAGATG,-0.0112
7,AATCCGTG,0.0623
8,CAGGAGAA,-0.315
9,CGTGCGGA,-0.137
10,ACCCAGAC,-0.17
11,ACATTCTC,-0.0819
12,ACACCGCG,0.157
13,CCTGTGAG,0.136
14,CCTTATCA,0.22
15,GAACCGGC,-0.157
16,ACGTTCGC,-0.0916
17,AGAACGGC,-0.127
18,CCATGAAC,-0.185
19,TATGGACA,0.0217
20,AATCAACG,0.0839
21,ACTGGCTC,-0.192
22,AGTCGTGC,0.0377
23,AGGTCCCC,-0.216
24,CAGGTGCG,0.0191
25,ACTCAATC,-0.0617

row,Sequence,PBM E-score
1,TAGTTAGA,-0.0788
2,ATGTTAGC,0.207
3,AGTTGCAC,-0.06
4,GATTCAGC,-0.174
5,ACATGTTG,0.368
6,CCAAATCC,-0.244
7,ACATTTCC,0.193
8,GCGAGGGA,-0.298
9,CTATCCGA,-0.136
10,CAGACTGG,-0.0997
11,CCACATCC,-0.242
12,TCCTATAA,0.172
13,TGAAGAAA,0.0144
14,GAAGACAA,-0.0357
15,CAATAATG,0.065
16,GCCTAGAA,0.141
17,ATGAACGC,0.145
18,GTCGAAAC,0.0124
19,CAAAAATA,0.01
20,GGTTGTAC,-0.00579
21,CTACAGGC,0.354
22,CACTTCGA,-0.0174
23,GCCACGCC,-0.189
24,ATAGCGTC,-0.011
25,CAAACGGG,-0.231

row,Sequence,PBM E-score
1,AGGGGTGA,-0.257
2,ACTATCGA,-0.0372
3,ACTTTGGC,-0.192
4,ATAAAACG,0.0166
5,CTCGCTGA,-0.0573
6,CCGCAGCG,-0.276
7,GAACCGTA,-0.249
8,GCGTAAAC,0.306
9,TGTTCCAA,0.083
10,CAAAGGTA,0.212
11,GGCACAAC,0.309
12,GTTCCTAA,0.431
13,CCAACTCA,-0.125
14,ACATTGAC,0.235
15,GCATGAGA,0.032
16,CGAGCTCC,0.0363
17,CCTCACAC,-0.116
18,ACTACTGC,-0.122
19,CAGAACCC,-0.0803
20,CTGCCCTC,-0.0391
21,GACTAGTC,-0.258
22,AGTATACC,-0.0499
23,GTACCCAA,0.0155
24,CACATCTA,0.191
25,AGAACCGA,-0.0525

row,Sequence,PBM E-score
1,GCGACCAC,-0.292
2,CAGGGAAA,-0.0721
3,AAGCTGGC,-0.141
4,AGGTTCGG,-0.235
5,GATATGGA,-0.0716
6,AGGCGACA,-0.148
7,ATACATTA,0.27
8,ATCCGTGG,-0.202
9,AATCCGAA,-0.227
10,GCATTTCA,-0.0517
11,AGACCGGC,-0.0434
12,AATGTCCC,-0.134
13,CTCTTAAA,0.217
14,CTTATATC,0.0252
15,AGGATAGA,-0.0589
16,CCTAATCA,0.159
17,AGATCCCC,-0.201
18,AGCCCATG,-0.163
19,ATGGCATA,-0.0737
20,AGTCTCGG,-0.218
21,AAGGCTCT,0.0737
22,CACTCACC,-0.329
23,AGAAGAAT,-0.0765
24,AGTCCCCC,-0.337
25,ATGTCCCC,-0.00319

row,Sequence,PBM E-score
1,CCTTTGGA,-0.0863
2,ATTACTTC,0.0432
3,AAATGAAT,-0.00475
4,AGATAATA,-0.00575
5,CGTTCCTA,0.455
6,AAAGCGCC,-0.00599
7,GAGGTGCA,-0.167
8,AGAGAAAT,-0.113
9,AAACGTGG,-0.0479
10,AGCCCTAA,0.0699
11,ACACACGA,0.233
12,CTATCCAC,-0.0235
13,CGACTATA,0.0875
14,ATACTGCA,-0.0239
15,CGCCACTC,-0.204
16,CAGATCAG,0.0568
17,ACTGGATC,-0.101
18,AGTCTCCA,-0.122
19,CTCCGCGA,-0.237
20,CGCTCGCC,-0.179
21,CCATTGCC,0.0862
22,CCGATGAG,-0.0549
23,CCGAATCC,-0.201
24,GGTGTGTA,0.335
25,GCTCAAGA,-0.223

row,Sequence,PBM E-score
1,CTGTATTC,0.185
2,TTGGCAAA,0.113
3,CTAGTCAA,-0.134
4,GGGTAGAC,-0.292
5,CGGCCAAG,-0.286
6,ACCATGAT,-0.223
7,ATCTCACC,-0.234
8,ACATCCTC,-0.00332
9,ACCTTGAC,0.133
10,TAATGGCA,-0.0937
11,CTCTTGCA,0.104
12,ACGAACTC,0.117
13,ATATGTCG,0.203
14,AGTCACTG,-0.00455
15,GGCTGGAC,-0.391
16,CTCCTTAA,-0.126
17,ATTTAAAC,0.18
18,AATATACA,0.26
19,GGTGGTGA,-0.179
20,CGTGTTCA,0.273
21,TAACCTTA,-0.00018
22,ACGCTAAT,-0.168
23,CAGGACGG,-0.134
24,ATCTCAAT,-0.00731
25,ACAGTGCT,-0.0624

row,Sequence,PBM E-score
1,ACACCCTA,-0.0334
2,AAGCAACC,0.00898
3,AGTTGAAG,-0.0916
4,CCGCAGCC,-0.315
5,CACATAAC,0.126
6,CCGTTCGC,-0.27
7,AACTGACG,-0.21
8,AGAGCGCT,-0.213
9,ATCCGACG,-0.0689
10,AACACATC,0.244
11,GGTTACTA,0.0652
12,CGCGCATA,0.0137
13,AGGAACCG,0.442
14,CACGCGAC,0.00358
15,GGACGGTA,-0.237
16,AGGACGAT,0.0143
17,GCCTGTCA,0.183
18,CCTCTGGA,-0.162
19,ACATAAGG,0.273
20,ATCGGAAT,0.0793
21,ACCTTACA,0.236
22,CCGCACGC,-0.216
